In all, about 110,000 compounds were measured (“z-score”: median about -0.1, highest 2% from about 2 on). Some of the results follow.
molecular target: Metabotropic glutamate receptor 8 (Rattus norvegicus) (UniProt P70579); assay: mGluR8 Gi/Go-coupled signaling modulation – cell-based, rat, thallium flux, HTS, primary screen (AID 488969); details: HEK293 rat mGluR8, GIRK (G protein-gated inwardly rectifying potassium channel) thallium flux, FluoZin2; at 10 µM; stronger effect = higher value; submaximal glutamate (EC20) added with thallium
UniProt P70579, sequence (P70579 whole entry, looked up): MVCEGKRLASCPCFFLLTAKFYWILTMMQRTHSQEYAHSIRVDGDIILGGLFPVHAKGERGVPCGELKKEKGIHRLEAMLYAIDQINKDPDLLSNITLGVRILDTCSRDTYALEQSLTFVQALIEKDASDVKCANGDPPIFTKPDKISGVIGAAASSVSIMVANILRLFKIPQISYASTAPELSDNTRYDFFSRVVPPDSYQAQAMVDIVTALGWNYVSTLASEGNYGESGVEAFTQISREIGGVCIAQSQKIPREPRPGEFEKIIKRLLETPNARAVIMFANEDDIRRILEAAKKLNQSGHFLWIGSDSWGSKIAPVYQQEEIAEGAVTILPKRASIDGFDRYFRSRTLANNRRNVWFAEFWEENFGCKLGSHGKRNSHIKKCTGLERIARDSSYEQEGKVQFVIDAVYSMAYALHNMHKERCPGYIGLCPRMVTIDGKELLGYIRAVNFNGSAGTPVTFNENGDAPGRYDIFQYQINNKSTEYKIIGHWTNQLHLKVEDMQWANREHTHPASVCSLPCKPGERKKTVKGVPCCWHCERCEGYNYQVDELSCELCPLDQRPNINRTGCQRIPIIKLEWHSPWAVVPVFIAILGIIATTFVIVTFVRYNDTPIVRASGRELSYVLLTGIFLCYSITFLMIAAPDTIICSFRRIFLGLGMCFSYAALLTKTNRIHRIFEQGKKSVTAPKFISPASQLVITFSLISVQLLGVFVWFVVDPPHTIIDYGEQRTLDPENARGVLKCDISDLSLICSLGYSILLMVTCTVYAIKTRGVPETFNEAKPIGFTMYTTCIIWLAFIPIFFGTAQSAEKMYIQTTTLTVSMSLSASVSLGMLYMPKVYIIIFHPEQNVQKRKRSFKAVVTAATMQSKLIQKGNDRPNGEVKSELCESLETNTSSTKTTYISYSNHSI

Row | Structure (SMILES) | z-score
1 | CCCn1c(Cc2ccccc2)nnc1SCC(=O)N1CCOCC1 | -0.146
2 | COC(=O)N/N=C/c1cc(C)n(-c2cccc3ccccc23)c1C | 0.0823
3 | CC(=O)N1C(=O)C2(C(C#N)=C(N)Oc3c2c(C)nn3-c2ccccc2)c2ccccc21 (stereo unspecified) | 0.946
4 | CCOCCCNCc1ccc(OC)c(OC)c1 | 0.4
5 | CCN(CC)CCCNS(=O)(=O)c1ccc(OC)cc1 | -0.0141
6 | Cc1n[nH]c(=S)n1/N=C/c1ccc(Br)o1 | -0.0632
7 | Nn1c(SCc2cccc3ccccc23)nnc1-c1ccco1 | 0.217
8 | N#Cc1c(NC(=O)c2nc3ncccn3n2)sc2c1CCCCC2 | -0.0691
9 | COCCCNC(=O)CN(c1cc(OC)ccc1OC)S(=O)(=O)c1ccccc1 | -0.283
10 | Cc1nnnn1CC(=O)Nc1ccccc1[N+](=O)[O-] | -0.367
11 | O=C1CC(N2CCC(Cc3ccccc3)CC2)C(=O)N1CCc1ccccc1 (stereo unspecified) | 0.135
12 | COC(=O)C1Sc2[nH]c(=O)sc2C(c2ccc(Cl)cc2)C1C(=O)OC (stereo unspecified) | -1.56
13 | CCOC(=O)c1cc(S(=O)(=O)NC2CCN(C(=O)OCC)CC2)cn1C | -0.118
14 | O=C(CN1C(=O)c2ccccc2S1(=O)=O)N1CCc2ccccc21 | -0.453
15 | CCN(CC)CCn1c(/N=C/c2cc(Br)ccc2O)nc2ccccc21 | -0.173
16 | COc1cc2c(cc1OC)C1=C(C#N)CN(CC(=O)O)CN1CC2 | 0.0477

Row | Structure (SMILES) | z-score
17 | CCOC(=O)N1CCC(NC(=O)c2cc(S(=O)(=O)N(CC)CC)ccc2F)CC1 | 0.131
18 | COc1cc(NC(=O)CSc2nc(C)c(C)c(C)n2)c(C)cc1[N+](=O)[O-] | 0.122
19 | O=C(NC1CC2CCC1C2)c1ccc(CN2CCOCC2)cc1 (stereo unspecified) | -0.0921
20 | CC(C)c1cc(-c2n[nH]c(=S)n2Cc2ccccc2)cs1 | 1.35
21 | O=C(O)c1ccc(-n2nc(C(F)(F)F)c3c2CCCC3)cc1 | -0.421
22 | O=C(Nc1ccccc1)c1cccc(S(=O)(=O)Oc2ccc([N+](=O)[O-])cc2)c1 | -0.533
23 | O=C(Nc1ccc(-c2nc3ccccc3[nH]2)cc1)c1ccc(N2C(=O)CCC2=O)cc1 | -0.0927
24 | CNC(=S)N(C)c1ccccc1 | -0.0387
25 | O=C(CSc1nc2ccsc2c(=O)n1NC(=O)c1ccccc1)NCc1ccco1 | -0.656
26 | O=C(COC(=O)c1cccs1)Nc1ccc(S(=O)(=O)N2CCOCC2)cc1 | 1.69
27 | O=C(N/C(C(=O)N1CCOCC1)=C(\Sc1ncccn1)c1ccccc1)c1ccccc1 | -1.34
28 | Cc1nc2ccc(NC(=O)c3cccs3)cc2c(=O)n1Cc1ccc(Cl)cc1 | -0.209
29 | Cc1cccc(NC(=S)N2N=CCC2c2ccccc2)c1 (stereo unspecified) | -0.196
30 | COc1ccc(Br)cc1CN1CCCC(C(=O)N2CCCCC2)C1 (stereo unspecified) | 1.28
31 | CC(C)Oc1ccc(C(=O)Nc2ccc(NC(=O)c3ccco3)c(Cl)c2)cc1 | 1.02

— PubChem BioAssay AID488969 (Vanderbilt High Throughput Screening Facility, 2010)
